The assay relates to herpes simplex type I (HF strain). The assay is described as follows: microbe, parasite or virus in culture. To be noted: 1000 TCD50, KB host cells, 72 hr at 37° C. The procedure: Ex. 1. Effects of the compounds (I) on the growth of herpes virus in tissue cultures
Antiviral activities were determined by the tube dilution method. The cells used for the assay were KB cells.
KB cells were cultured in Eagle MEM medium. The medium was supplemented with 10% fetal calf serum.
The monolayer of cells grown in tube was exchanged to the fresh medium supplemented with 2% fetal calf serum, then 1000 TCD50 of herpes simplex type I (HF strain) and the test compound were added.
After 72 hr. incubation at 37° C. virus induced cytopathic effect (CPE) and the cytotoxicity of the compound were determined by microscopic examination.

In brackets after ≈: the same amount, converted by molar mass. Structures can show the parent of a compound that is named as a salt.

Among the data in patent publication US4318925A (priority 1977, dated 1982) are MIC values, retold here.

`NC12CC3CC(CC(C3)C1)C2` [Amantadine hydrochloride, reference compound]: the MIC was 50 µg/mL.

Regarding `CN(C)CCOCC(=O)NC12CCCC3CC(CCC31)C2` (centres unmarked) [N-[3-(4-homoisotwistyl)]-2-(2-dimethylaminoethoxy)-acetamide hydrochloride], the MIC worked out at 50 µg/mL.

For `CCOCC(=O)NC12CCCC3CC(CCC31)C2` (centres unmarked) [N-[3-(4-homoisotwistyl)]-2-ethoxyacetamide], the MIC was found to be 10 µg/mL (≈ 39.8 µM).

Regarding `CCCCCOCC(=O)NC12CCCC3CC(CCC31)C2` (centres unmarked) [N-[3-(4-homoisotwistyl)]-2-pentyloxyacetamide], the MIC amounted to 5 µg/mL (≈ 17 µM).

For `CCCCCCCCCCCOCC(=O)NC12CCCC3CC(CCC31)C2` (centres unmarked) [N-[3-(4-homoisotwistyl)]-2-undecyloxyacetamide], the MIC was determined as 2.5 µg/mL (≈ 6.62 µM).
